This note sets out measurements from ChEMBL document CHEMBL5606458, “ASAP - ZIKV NS2B-NS3 protease fluorescence single point” (2024).

Out of some 2,700 compounds screened, about 160 (5.9%) showed an effect of 50% or more. The list shows a part of the results.

For this test, the target named is Nonstructural protein 3 (Zika virus) (UniProt A0A024AXB9).
[1] abbreviates: PRVABC59, Concentration 50.0 uM, Number of replicates 1.0.
Setting [2] is: PRVABC59, Concentration 15.0 uM, Number of replicates 1.0.

Chain of UniProt A0A024AXB9 (A0A024AXB9 as listed by the source): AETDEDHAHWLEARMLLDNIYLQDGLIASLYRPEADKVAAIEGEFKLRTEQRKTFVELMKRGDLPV

With `c1cnc2c(C3CCN(Cc4ccc5[nH]cnc5c4)CC3)c[nH]c2c1`, the inhibition reads like this: (PRVABC59, Concentration 49.5 uM, Number of replicates 2.0, Standard deviation 2.816135776094685 %) 1.64%; (PRVABC59, Concentration 99.01 uM, Number of replicates 2.0, Standard deviation 1.9941147484327908 %) 7.38%; (PRVABC59, Concentration 198.0 uM, Number of replicates 2.0, Standard deviation 0.19707731493778816 %) 19.3%.

`NCc1cccc(NC(=O)[C@H]2CC(F)(F)CN2C(=O)OCc2ccccc2)c1`: the inhibition is, setting by setting: (PRVABC59, Concentration 49.5 uM, Number of replicates 2.0, Standard deviation 3.1999184669467913 %) 1.62%; (PRVABC59, Concentration 99.01 uM, Number of replicates 2.0, Standard deviation 2.289731058014261 %) 3.57%; (PRVABC59, Concentration 198.0 uM, Number of replicates 2.0, Standard deviation 2.9691301638149588 %) 6.61%.

For `CNC(=O)c1cc(OC)ccc1NS(=O)(=O)c1ccc(Oc2ccccc2Cl)cc1`, the inhibition (PRVABC59, Concentration 49.5 uM, Number of replicates 2.0, Standard deviation 3.2128953973095986 %) was -4.51%.

With `O=C(O)c1cccc(NC(=O)c2ccc3[nH]ccc3c2)c1`, the inhibition (PRVABC59, Concentration 49.5 uM, Number of replicates 2.0, Standard deviation 1.6936191403460628 %) is 1.68%; the inhibition (PRVABC59, Concentration 99.01 uM, Number of replicates 2.0, Standard deviation 1.548333263704462 %) was 5.18%; the inhibition (PRVABC59, Concentration 198.0 uM, Number of replicates 2.0, Standard deviation 1.023228375505538 %) was found to be 11.9%.

As to `O=Cc1ccc(N2CCC(C(=O)N3CCN(C(=O)C4CC4)CC3)CC2)cc1`, the inhibition under setting [1] was 23.6%.

Consider `Cc1cnccc1NC(=O)c1cn(C)c(=O)n(C)c1=O`, for which the inhibition is, setting by setting: (PRVABC59, Concentration 49.5 uM, Number of replicates 2.0, Standard deviation 1.1484125234841103 %) -2.08%; (PRVABC59, Concentration 99.01 uM, Number of replicates 2.0, Standard deviation 0.8202945030860701 %) -3.34%; (PRVABC59, Concentration 198.0 uM, Number of replicates 2.0, Standard deviation 1.3175983184828441 %) -4.92%.

Take `CN(C[C@H](O)c1ccc(O)cc1)C(=O)C1CCN(c2ccc(C=O)cc2)CC1`: the inhibition under setting [1] turned out to be 23.6%.

As for `Cn1ccnc1CC(=O)N[C@@]1(C)CCCN(C(=O)c2cc(F)c3[nH]nnc3c2)C1`, the inhibition came out at 1.04% (PRVABC59, Concentration 49.5 uM, Number of replicates 2.0, Standard deviation 0.8238740770769488 %); 2.48% (PRVABC59, Concentration 99.01 uM, Number of replicates 2.0, Standard deviation 0.8782808959106313 %); 3.5% (PRVABC59, Concentration 198.0 uM, Number of replicates 2.0, Standard deviation 1.7280629357951662 %).

On to `O=C(N[C@H](CO)Cc1ccc(Cl)cc1)c1cc(Cl)ccc1NS(=O)(=O)c1ccc(Oc2ccccc2Cl)cc1`, for which the inhibition under setting [2] is 50.2%.

Consider `Cc1cc(CO)c2cccc(Cc3ccccc3NC(=O)[C@@H](N)CCN)c2n1`, for which the inhibition reads like this: (PRVABC59, Concentration 49.95 uM, Number of replicates 2.0, Standard deviation 1.3894780827442335 %) -6.69%; (PRVABC59, Concentration 99.9 uM, Number of replicates 2.0, Standard deviation 0.9110496491593663 %) 5.76%.

Regarding `O=C(Nc1cccc(B(O)O)c1)[C@H]1CCN2CCOC[C@@H]12`, the inhibition by setting is: (PRVABC59, Concentration 49.5 uM, Number of replicates 2.0, Standard deviation 1.8325815145713313 %) 0.689%; (PRVABC59, Concentration 99.01 uM, Number of replicates 2.0, Standard deviation 2.075699815014753 %) 1.7%; (PRVABC59, Concentration 198.0 uM, Number of replicates 2.0, Standard deviation 2.0144096361025445 %) 4.04%.

With `Cc1nn([C@@H](C)c2ccc(F)c(F)c2F)cc1C1CCNCC1`, the inhibition by setting is: (PRVABC59, Concentration 49.5 uM, Number of replicates 2.0, Standard deviation 4.947327227676943 %) -1.68%; (PRVABC59, Concentration 99.01 uM, Number of replicates 2.0, Standard deviation 2.8449181750441386 %) 1.52%; (PRVABC59, Concentration 198.0 uM, Number of replicates 2.0, Standard deviation 2.728003744505586 %) 3.89%.

`COc1nscc1-c1ccccc1C(=O)Nc1cnn(C)c1`: the inhibition (PRVABC59, Concentration 49.5 uM, Number of replicates 2.0, Standard deviation 2.0613155081961194 %) was -1.46%; the inhibition (PRVABC59, Concentration 99.01 uM, Number of replicates 2.0, Standard deviation 1.0972097923679232 %) came out at 1.42%; the inhibition (PRVABC59, Concentration 198.0 uM, Number of replicates 2.0, Standard deviation 0.19246139208887503 %) was 3.36%.

`Cc1cc(CO)c2cccc(CC(=O)N[C@H](Cc3c[nH]cn3)C(=O)O)c2n1`: the inhibition is, setting by setting: (PRVABC59, Concentration 49.95 uM, Number of replicates 2.0, Standard deviation 0.34100711672855083 %) -8.86%; (PRVABC59, Concentration 99.9 uM, Number of replicates 2.0, Standard deviation 0.9059596585584027 %) -5.32%.

Take `O=Cc1ccc(N2CCC(C(=O)N[C@H](CO)Cc3ccc(Cl)cc3)CC2)cc1`: the inhibition under setting [1] turned out to be 24.1%.

With `Cc1cc(CO)c2cccc(Cc3cccc(C(=O)N4CC5(CCCOC5)C4)c3)c2n1`, the inhibition was -2.97% (PRVABC59, Concentration 49.95 uM, Number of replicates 2.0, Standard deviation 0.5767806333959491 %) and -0.434% (PRVABC59, Concentration 99.9 uM, Number of replicates 2.0, Standard deviation 1.1011265622203132 %).

For `O=C(c1cc(Cl)ccc1NS(=O)(=O)c1ccc(Oc2ccccc2Cl)cc1)N1CCN(c2cccc3sccc23)CC1`, the inhibition under setting [2] was found to be 11%.

Consider `O=Cc1ccc(N2CCC(C(=O)N3CCO[C@@H](c4ccccc4)C3)CC2)cc1`, for which the inhibition under setting [1] came to 17%.

For the compound `Cc1cc(CO)c2cccc(NC(=O)[C@@H]3CCCC[C@H]3C(=O)O)c2n1`, the inhibition is, setting by setting: (PRVABC59, Concentration 49.95 uM, Number of replicates 2.0, Standard deviation 1.6258787445174738 %) 3.41%; (PRVABC59, Concentration 99.9 uM, Number of replicates 2.0, Standard deviation 1.31977157857946 %) 10.8%.

Turning to `COCc1cc(-c2ccccc2C(=O)Nc2cnn(C)c2)ccn1`, the inhibition reads like this: (PRVABC59, Concentration 49.5 uM, Number of replicates 2.0, Standard deviation 2.988446528102835 %) -2.8%; (PRVABC59, Concentration 99.01 uM, Number of replicates 2.0, Standard deviation 3.052465357207912 %) -1.41%; (PRVABC59, Concentration 198.0 uM, Number of replicates 2.0, Standard deviation 2.2556370392609493 %) -1.01%.

Regarding `COC1CN(C(=O)c2cc(Cl)ccc2NS(=O)(=O)c2ccc(Oc3ccccc3Cl)cc2)C1`, the inhibition was 6.32% (PRVABC59, Concentration 49.5 uM, Number of replicates 2.0, Standard deviation 0.6071418743640448 %); 8.03% (PRVABC59, Concentration 99.01 uM, Number of replicates 2.0, Standard deviation 1.0994187508452276 %); 8.64% (PRVABC59, Concentration 198.0 uM, Number of replicates 2.0, Standard deviation 2.4498991975993007 %).

Broadly, the inhibition is the relative decrease from the control value, in per cent.
